Experimental data reported in paper PMC4336329 (PLoS ONE, 2015).
Screen size: about 310,000 compounds; about 2,200 (0.71%) showed an effect of 50% or more. The effect is printed as a negative number. The list shows a part of the results.

Target: human ether-à-go-go-related gene (hERG) potassium channel (human, UniProt Q12809)
Test: primary screen, population patch clamp on CHO cells stably expressing hERG

human ether-à-go-go-related gene (hERG) potassium channel, sequence (Q12809 whole entry, looked up): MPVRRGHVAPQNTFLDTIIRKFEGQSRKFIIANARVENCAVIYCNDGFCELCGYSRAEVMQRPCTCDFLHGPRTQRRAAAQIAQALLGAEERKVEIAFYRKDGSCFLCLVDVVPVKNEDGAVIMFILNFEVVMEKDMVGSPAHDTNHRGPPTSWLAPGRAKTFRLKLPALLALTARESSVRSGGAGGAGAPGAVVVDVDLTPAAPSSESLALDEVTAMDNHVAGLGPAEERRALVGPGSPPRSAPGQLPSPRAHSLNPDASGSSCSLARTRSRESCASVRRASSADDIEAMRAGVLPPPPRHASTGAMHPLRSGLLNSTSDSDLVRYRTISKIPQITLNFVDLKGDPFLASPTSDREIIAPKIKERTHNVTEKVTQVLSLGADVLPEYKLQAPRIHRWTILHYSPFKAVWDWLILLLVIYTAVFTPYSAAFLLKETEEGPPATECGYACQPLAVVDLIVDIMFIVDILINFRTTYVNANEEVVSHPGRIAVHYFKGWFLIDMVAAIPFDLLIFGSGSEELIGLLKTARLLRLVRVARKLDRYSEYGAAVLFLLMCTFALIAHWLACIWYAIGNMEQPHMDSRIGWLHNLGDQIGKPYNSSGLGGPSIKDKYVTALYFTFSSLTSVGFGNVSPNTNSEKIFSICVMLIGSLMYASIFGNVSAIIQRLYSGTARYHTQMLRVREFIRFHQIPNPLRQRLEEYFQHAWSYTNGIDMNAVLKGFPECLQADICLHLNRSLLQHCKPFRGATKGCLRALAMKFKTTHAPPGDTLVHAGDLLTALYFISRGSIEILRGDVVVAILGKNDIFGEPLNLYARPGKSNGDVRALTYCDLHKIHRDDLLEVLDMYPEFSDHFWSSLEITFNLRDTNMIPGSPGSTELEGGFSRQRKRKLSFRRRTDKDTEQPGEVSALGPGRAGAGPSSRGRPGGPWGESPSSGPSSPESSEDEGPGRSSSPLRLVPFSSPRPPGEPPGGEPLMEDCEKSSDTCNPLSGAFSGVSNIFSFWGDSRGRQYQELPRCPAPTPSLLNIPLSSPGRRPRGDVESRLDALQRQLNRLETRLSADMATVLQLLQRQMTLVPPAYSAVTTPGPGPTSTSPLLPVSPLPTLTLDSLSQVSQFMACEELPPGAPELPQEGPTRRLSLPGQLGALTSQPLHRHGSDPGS

Question: With `NS(=O)(=O)c1ccc(CCNC(=O)CN2CCN(c3ccccc3O)CC2)cc1` as the molecule, how does the “hERG current change (%, negative = inhibition) at 1uM” value read?
Answer: 13.1%

Question: Which “hERG current change (%, negative = inhibition) at 1uM” value does the source give for `O=C(CSc1nc2c(oc3ccccc32)c(=O)n1CC1CCCO1)NCc1ccccc1` (stereo not shown) here?
Answer: 6.87%

Question: Which “hERG current change (%, negative = inhibition) at 1uM” value does the source give for `CC1CCC(C)(NS(=O)(=O)OCC(Cl)(Cl)Cl)CC1` (stereo not shown) here?
Answer: -5.35%

Question: How did the “hERG current change (%, negative = inhibition) at 1uM” value turn out when `O=C(Nc1ccc(NC(=O)c2ccco2)c(Cl)c1)c1ccc2c(c1)OCCO2` was run?
Answer: 4.42%

Question: For `COc1ccccc1C(=O)NCCn1ccc2ccccc21`, which “hERG current change (%, negative = inhibition) at 1uM” value is on record?
Answer: -3.17%

Question: For `O=C(O)c1ccc(OC(F)(F)C(F)C(F)(F)F)cc1` (stereo not shown), which “hERG current change (%, negative = inhibition) at 1uM” value is on record?
Answer: 15%

Question: For `Nc1cccc(S(=O)(=O)Nc2ccc(Br)cc2)c1`, which “hERG current change (%, negative = inhibition) at 1uM” value is on record?
Answer: 8.69%

Question: How did the “hERG current change (%, negative = inhibition) at 1uM” value turn out when `COCCN1C(=O)N[C@@H](c2ccccc2)[C@@H](C(=O)OC)[C@H]1C` was run?
Answer: 10.9%

Question: `CCc1ccc(C(C(=O)NC2CCCCC2)N(C(=O)c2ccccn2)c2cccnc2)cc1` (stereo not shown) was tested. Which “hERG current change (%, negative = inhibition) at 1uM” value did it give?
Answer: 12.9%

Question: `O=C(CCN1C(=O)C2CCCCC2C1=O)Nc1nc(-c2ccccc2)cs1` (stereo not shown) was tested. Which “hERG current change (%, negative = inhibition) at 1uM” value did it give?
Answer: 12.5%

Question: With `COc1ccc(NC(=O)NC2(C(=O)N3CCN4CCCC4C3)CCCCC2)cc1` (stereo not shown) as the molecule, how does the “hERG current change (%, negative = inhibition) at 1uM” value read?
Answer: 14%

Question: With `Cc1ccc(C)n1-c1ccc(C(=O)NN)cc1` as the molecule, how does the “hERG current change (%, negative = inhibition) at 1uM” value read?
Answer: 14.7%

Question: For `CC(C)Oc1ccc(CCNC(=O)C2CCC(=O)N(C3CCCCCC3)C2)cc1` (stereo not shown), which “hERG current change (%, negative = inhibition) at 1uM” value is on record?
Answer: 14.3%

Question: With `CCOC(=O)c1c(CN(C)C)n(C)c2ccc(OC(C)=O)cc12.Cl` as the molecule, how does the “hERG current change (%, negative = inhibition) at 1uM” value read?
Answer: 0.817%

Question: How did the “hERG current change (%, negative = inhibition) at 1uM” value turn out when `CC(=O)N(CN1C(=O)c2ccc([N+](=O)[O-])cc2C1=O)c1ccc(F)cc1` was run?
Answer: 9.11%

Question: With `Cc1cc(NC(=O)CSc2nc3ccc(Cl)cc3[nH]2)no1` as the molecule, how does the “hERG current change (%, negative = inhibition) at 1uM” value read?
Answer: 10.2%

Question: How did the “hERG current change (%, negative = inhibition) at 1uM” value turn out when `O=C(COC(=O)c1ccc(Cl)s1)c1ccc[nH]1` was run?
Answer: 18.3%

Question: For `Cc1ccc(OC(=O)c2ccc(N3CCOCC3)c([N+](=O)[O-])c2)cc1`, which “hERG current change (%, negative = inhibition) at 1uM” value is on record?
Answer: 2.85%

Question: Which “hERG current change (%, negative = inhibition) at 1uM” value does the source give for `CNC(=S)NNC(=O)c1sccc1OCc1ccccc1` here?
Answer: 15%

Question: With `O=c1c(Cc2ccccc2)c(O)ccn1Cc1ccco1` as the molecule, how does the “hERG current change (%, negative = inhibition) at 1uM” value read?
Answer: 17.2%

Question: For `COc1ccc(S(=O)(=O)N(C)C)cc1NCC(=O)Nc1cccc2ccccc12`, which “hERG current change (%, negative = inhibition) at 1uM” value is on record?
Answer: 4.36%

Question: Which “hERG current change (%, negative = inhibition) at 1uM” value does the source give for `O=C(O)CC(c1ccc(F)cc1F)N1Cc2ccccc2C1=O` (stereo not shown) here?
Answer: 18.4%

Question: Which “hERG current change (%, negative = inhibition) at 1uM” value does the source give for `CCOC(=O)c1oc2cc(C)cc(O)c2c(=O)c1-c1csc(C)n1` here?
Answer: 5.58%

Question: Which “hERG current change (%, negative = inhibition) at 1uM” value does the source give for `CS(=O)(=O)Nc1ccc(C(=O)Nc2ccccc2C(=O)N2CCCC2)cc1` here?
Answer: -0.791%

Question: With `O=C(N/N=C/c1ccccn1)c1ccc(Cl)c(Cl)c1` as the molecule, how does the “hERG current change (%, negative = inhibition) at 1uM” value read?
Answer: 5.21%
